These results are taken from ChEMBL document CHEMBL4888484, “Replenishing the malaria drug discovery pipeline: Screening and hit evaluation of the MMV Hit Generation Library 1 (HGL1) against asexual blood stage Plasmodium falciparum ,using a nano luciferase reporter read-out” (2022).

As a reminder, the % Inhibition is the relative decrease from the control value, in per cent.

Out of some 150,000 compounds screened, about 540 (0.36%) showed an effect of 50% or more. Some of the results follow.

The test system of the assay is Plasmodium falciparum. In words: Primary screen in NF54 nanoGlo assay, in single point, at 2uM, 72h; a lower Z score goes with more inhibition. The class given is functional, Erythrocyte. The conditions noted are these: timepoint 72 hour.
As for `COc1cccc(C(=O)NCc2cccnc2-c2ccc(F)cc2)c1`, the “% Inhibition” value was -13% and the Z score amounted to 1.65.

`Cc1cc2c(cc3n2C[C@@](C)(C(=O)NC2CCCCCC2)N(CCN2CCCCCC2)C3=O)o1`: the “% Inhibition” value is listed as -13% and the Z score is given as 2.36.

Regarding `CCc1csc(NC(=O)C(C)(C)NC(=O)OC(C)(C)C)n1`, the “% Inhibition” value was -3% and the Z score amounted to 0.46.

For the compound `CC(C)(C)c1cc(-n2c(-c3c[nH]c4ccccc34)nc3ccccc32)cc(C(C)(C)C)c1O`, the “% Inhibition” value is -43% and the Z score stood at 5.03.

For `C=CCn1cc(CNCc2ncc(C)c(O)c2C)c(C)n1`, the “% Inhibition” value turned out to be 0% and the Z score was 0.06.

In the case of `CC1COC(CO)CN1CCCCC1CCOCC1` (centres undefined), the “% Inhibition” value is on record as -7% and the Z score is reported as 0.74.

Consider `CCOC(=O)[C@@H](NC(=O)c1c[nH]c(C)cc1=O)C1CCCCCC1`, for which the “% Inhibition” value is -1% and the Z score amounted to 0.17.

Take `CC[C@H](NC(=O)Cc1sc(N)nc1C)c1cnn(C)c1`: the “% Inhibition” value worked out at 0% and the Z score turned out to be 0.06.

Regarding `COCc1noc(CNC(=O)C[C@H](C)n2ccnc2)n1`, the “% Inhibition” value was -6% and the Z score was 0.75.

Turning to `Cc1ccc(-n2nc3ccc(NC(=O)c4cc5ccccc5o4)cc3n2)cc1Cl`, the “% Inhibition” value is given as 2% and the Z score was -0.37.

For the compound `Cc1noc(C)c1CN(C)C[C@H](O)COCc1ccc2c(c1)OCO2`, the “% Inhibition” value is reported as -2% and the Z score was found to be 0.2.

Regarding `O=C(CCCc1nnc2ccccn12)NCCc1ccccc1`, the “% Inhibition” value is given as -6% and the Z score was 0.7.

Turning to `CCOCC(=O)N1CCN(Cc2ccc3ncccc3c2)C[C@H](O)C1`, the “% Inhibition” value was -11% and the Z score was 1.98.

On to `Cc1cc(C(=O)N2CCC[C@H](C(=O)c3ccc4c5c(cccc35)CC4)C2)nc(N)n1`, for which the “% Inhibition” value is reported as -4% and the Z score is on record as 0.45.

As to `CCNC(=O)N(C1CCN(C)CC1)C1CN(C(=O)Nc2ccc(C)c(C)c2)C1`, the “% Inhibition” value is given as -2% and the Z score is 0.31.

For `Cc1cn2cccc(C(=O)NCC[C@H]3CCCOC3)c2n1`, the “% Inhibition” value is 2% and the Z score is -0.34.

In the case of `Cc1nc(N(CCC(N)=O)CCC(N)=O)sc1C`, the “% Inhibition” value was 3% and the Z score is given as -0.43.

For `CNC(=O)[C@@H]1C[C@@H](NCc2cccc(C(F)(F)F)c2)CN1Cc1cccc(Cl)c1`, the “% Inhibition” value was -3% and the Z score was found to be 0.36.

`CC(C)n1cnnc1CC1CN(C(=O)Nc2cc(F)cc(F)c2)C1`: the “% Inhibition” value is reported as -5% and the Z score is 0.86.

In the case of `Cc1cc(C#N)cc(C)c1OCc1ncnn1C(C)(C)C`, the “% Inhibition” value is -13% and the Z score was 1.2.

As to `O=C1C2CCCCC2C(=O)N1Cc1ccccn1` (centres undefined), the “% Inhibition” value is -6% and the Z score is 1.23.

`O=C1C[C@@H](c2ccccc2)N(C(=O)Cc2cccnc2)CCCCCCN1`: the “% Inhibition” value turned out to be 7% and the Z score was -1.08.

In the case of `Cn1cc(CCC(=O)N2CCN(c3cc(=O)[nH]c(N)n3)CC2)cn1`, the “% Inhibition” value is -4% and the Z score was determined as 0.8.

In the case of `Cc1nc(-c2cccc(C)c2F)c2cnn(C)c2n1`, the “% Inhibition” value is -1% and the Z score amounted to 0.11.

With `COc1cc(NC(=O)c2ccc3nsnc3c2)cc(OC)c1OC`, the “% Inhibition” value is -6% and the Z score was determined as 0.92.

Take `COC(=O)CN(C(=O)C1CCC1)C(C)C`: the “% Inhibition” value is -5% and the Z score stood at 0.45.

With `CC(C)Oc1ccc(C(=O)N[C@@H](C)C2CC2)nc1`, the “% Inhibition” value is -3% and the Z score stood at 0.41.

With `COc1cccc([C@H]2OCCn3c(-c4cccc(C)c4)c4c(=O)n(C)c(=O)n(C)c4c32)c1O`, the “% Inhibition” value was found to be 3% and the Z score is given as -0.49.

Turning to `COc1ccc(Cn2c(C)c(C3=CCN(S(=O)(=O)c4cc(C)c(C)cc4C)CC3)c3ccccc32)cc1`, the “% Inhibition” value is 0% and the Z score is given as 0.05.

`CCS(=O)(=O)Nc1ccccc1-c1nc(CNC(=O)C(C)C)c(C)o1`: the “% Inhibition” value was 4% and the Z score is -0.74.

`COC1CCCCC1Nc1ccc2nccnc2n1` (centres undefined): the “% Inhibition” value stood at 4% and the Z score is recorded as -0.48.

In the case of `CC(=O)N1CC(C(=O)NC2(CNC(=O)[C@@H](C)C3CC3)CCCCC2)C1`, the “% Inhibition” value is reported as 19% and the Z score is on record as -2.45.

Regarding `CCn1ccc(C(=O)N2CCCN(c3nnc4ccc(Cl)cn34)CC2)n1`, the “% Inhibition” value is given as -21% and the Z score worked out at 2.04.

On to `CC(C)[C@H](C)N(C1CC1)S(=O)(=O)c1ccc(OCC(F)(F)F)nc1`, for which the “% Inhibition” value is -8% and the Z score is 1.56.

On to `CCCCC1CCCC1NC(=O)C(C)OCC` (centres undefined), for which the “% Inhibition” value is listed as -3% and the Z score is listed as 0.3.

As to `O=C(CN1CCC[C@@H]1C(=O)O)NC(c1ccccc1)c1cccc(Cl)c1` (some centres undefined), the “% Inhibition” value is on record as -17% and the Z score was 2.26.

Regarding `Cc1oc(-c2ccsc2)nc1CN(C)[C@@H](C)c1cccs1`, the “% Inhibition” value is recorded as -6% and the Z score turned out to be 1.09.

`CC(c1ccco1)N(C)C(=O)NC1C2CCCOC2C1(C)C` (centres undefined): the “% Inhibition” value was -10% and the Z score was 0.99.

In the case of `O=C1NC[C@@]2(CCCN(C(=O)c3[nH]cnc3-c3ccccc3)C2)O1`, the “% Inhibition” value was -2% and the Z score was found to be 0.38.

In the case of `COc1ccccc1S(=O)(=O)N1CCC(c2cccs2)CC1`, the “% Inhibition” value is recorded as 4% and the Z score is given as -0.69.

For `O=S(=O)(CCC(F)(F)F)N1CC[C@H](Oc2ncc(Br)cn2)C1`, the “% Inhibition” value is -10% and the Z score is 1.49.

Turning to `Cc1cc(C)c(-c2cn(Cc3ccccn3)nn2)c(-n2cccn2)c1`, the “% Inhibition” value amounted to 1% and the Z score is -0.17.
